# From publication PMC4336329 (PLoS ONE, 2015)
# The whole screen tested about 310,000 compounds, of which about 2,200 (0.71%) showed an effect of 50% or more. The effect is printed as a negative number. This is one part of the list.
# Target: human ether-à-go-go-related gene (hERG) potassium channel (human, UniProt Q12809)
# Test: primary screen, population patch clamp on CHO cells stably expressing hERG
# Sequence of human ether-à-go-go-related gene (hERG) potassium channel (Q12809 whole entry, looked up): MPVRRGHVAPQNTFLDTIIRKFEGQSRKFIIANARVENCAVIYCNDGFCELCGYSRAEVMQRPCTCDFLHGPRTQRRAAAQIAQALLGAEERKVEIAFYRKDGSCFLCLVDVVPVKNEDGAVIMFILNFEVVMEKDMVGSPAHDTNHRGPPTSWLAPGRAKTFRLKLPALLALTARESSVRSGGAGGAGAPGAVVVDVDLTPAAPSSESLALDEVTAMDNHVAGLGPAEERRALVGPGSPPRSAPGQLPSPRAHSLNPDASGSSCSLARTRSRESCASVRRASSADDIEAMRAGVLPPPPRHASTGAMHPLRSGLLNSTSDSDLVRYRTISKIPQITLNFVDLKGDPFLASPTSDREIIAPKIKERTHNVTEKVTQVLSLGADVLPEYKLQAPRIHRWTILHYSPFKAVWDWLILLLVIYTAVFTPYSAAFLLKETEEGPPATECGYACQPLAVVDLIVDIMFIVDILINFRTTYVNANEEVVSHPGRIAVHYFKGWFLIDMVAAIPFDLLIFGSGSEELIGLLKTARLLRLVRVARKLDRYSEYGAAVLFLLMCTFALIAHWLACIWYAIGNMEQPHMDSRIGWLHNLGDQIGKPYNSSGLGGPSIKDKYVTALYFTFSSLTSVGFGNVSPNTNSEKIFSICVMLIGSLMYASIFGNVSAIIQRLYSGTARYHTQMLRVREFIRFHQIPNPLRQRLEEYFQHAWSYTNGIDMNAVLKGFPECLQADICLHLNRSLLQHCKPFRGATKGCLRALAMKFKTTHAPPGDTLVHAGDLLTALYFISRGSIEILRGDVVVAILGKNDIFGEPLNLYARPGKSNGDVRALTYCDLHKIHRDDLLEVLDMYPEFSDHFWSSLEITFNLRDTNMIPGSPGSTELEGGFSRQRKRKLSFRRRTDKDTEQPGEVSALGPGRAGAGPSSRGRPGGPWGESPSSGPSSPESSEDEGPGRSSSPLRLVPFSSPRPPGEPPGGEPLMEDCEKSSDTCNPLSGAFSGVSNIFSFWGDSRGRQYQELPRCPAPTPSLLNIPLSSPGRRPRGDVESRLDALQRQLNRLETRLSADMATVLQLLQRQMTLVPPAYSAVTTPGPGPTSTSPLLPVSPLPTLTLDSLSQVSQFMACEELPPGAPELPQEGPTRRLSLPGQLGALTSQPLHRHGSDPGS
row,SMILES,"hERG current change (%, negative = inhibition) at 1uM [%]"
1,Cc1cnc(C(=O)OCC(=O)Nc2cccc(S(=O)(=O)N3CCCCC3)c2)cn1,7.04
2,NNC(=O)c1cc2ccccc2cc1O,5.55
3,Cc1cc(O)c(/C=N/Nc2ccc(F)cc2)c(=O)o1,12.3
4,O=C(NCc1ccccc1Cl)c1ccc2nc[nH]c2c1,5.92
5,c1cncc(-c2nc(NCCCn3ccnc3)c3ccccc3n2)c1,-13.1
6,CCC(C)Oc1cccc(OCCCCN2C(=O)NC(C)(C)C2=O)c1 (stereo not shown),0.704
7,Cc1ccc(C(=O)OCC(=O)NCCNC(=O)COC(=O)c2ccc(C)o2)o1,17.7
8,Cc1cc(OCC[N+]2(C)CCCCC2)nc2ccccc12.[I-],11.6
9,Cc1ccccc1-c1ccnc2[nH]n(-c3ccccc3)c(=O)c12,14.8
10,CCc1ccc(/C=N/NC(=O)c2nnn(-c3nonc3N)c2CN2CCc3ccccc32)cc1,9.5
11,CC(=O)Nc1ccc(S(=O)(=O)N(C)CC(=O)Nc2ccc(F)c(F)c2F)cc1,7.72
12,Cc1ccc(COC(=O)c2cc(S(=O)(=O)N3CCOCC3)ccc2C)cc1,7.76
13,COc1cc(/C=C/C(=O)Nc2nc3ccc(S(=O)(=O)N(C)C)cc3s2)cc(OC)c1OC,3.31
14,Cc1ccc(NC(=O)CSCc2cc(=O)n3nc(C4CC4)sc3n2)cc1,8.38
15,O=C(CSc1ccc(Cl)cc1)N1CCN(c2ccc(Cl)cc2[N+](=O)[O-])CC1,-39.9
16,Cc1cccc(NC(=O)C2(c3ccccc3)CC2(Cl)Cl)c1 (stereo not shown),16.7
17,C=Cn1ccnc1P(=S)(c1ccc(N(C)C)cc1)c1nccn1C=C,-2.94
18,COc1ccccc1-c1nc(SCC(=O)N(C)c2ccccc2)c2c(=O)n(C)c(=O)n(C)c2n1,13.3
19,C/C(=N\Nc1ccc(F)cc1F)c1ccccc1O,12.8
20,COCC(=O)NCc1ccc2c(c1)cc(C)n2C,-4.48
21,O=C(CCc1nnc(C2(c3ccc(Cl)cc3)CCC2)o1)NC1CC1,10.3
22,OC1CCCN(Cc2cccc3ccccc23)C1 (stereo not shown),14.7

row,SMILES,"hERG current change (%, negative = inhibition) at 1uM [%]"
1,CC(C)CCN(C(=S)NC(=O)C1CCCCC1)c1c(N)n(Cc2ccccc2)c(=O)[nH]c1=O,25.4
2,COCCCNC(=O)c1cc(-c2cccnc2)nc2ccc(S(=O)(=O)N3CCCCCC3)cc12,17.9
3,COC(=O)c1c(-c2ccc(Br)cc2)csc1NC(=O)Cc1ccc(OC)c(OC)c1,7.66
4,CC(C)NC(=O)C1CCCN(S(=O)(=O)c2cccs2)C1 (stereo not shown),8.52
5,O=C(CNC(=S)N(Cc1ccccc1)Cc1ccccc1F)NCc1ccccc1,16.9
6,COc1ccc(-n2c(=S)[nH]c3cc(C(=O)N4CCN(c5ccccc5)CC4)ccc3c2=O)cc1,18.7
7,CC(C)=CCc1c(O)ccc(C(=O)Cc2ccccc2)c1O,4.58
8,CN=C1CC(C)(C)CC(=O)/C1=C(/O)CCC(=O)NC,10.8
9,O=C(O)/C=C/c1ccc(O)c(O)c1,6.46
10,CCOC(=O)c1c(NC(C)=O)sc2c(OCC(O)CN(CC)CC)c(Br)ccc12 (stereo not shown),-13.8
11,Cc1cccc(NC(=S)NNC(=O)c2cc3c(s2)CCC(C)C3)c1C (stereo not shown),-0.82
12,COC(=O)c1ccc(NC(=O)C(=O)N2CCN(C(=S)Nc3ccc(OC)cc3)CC2)cc1,12.7
13,CCCn1nnc(NC(=S)NC(=O)/C=C/c2ccco2)n1,10.5
14,COc1cc(C2c3c(c(C)c(C)oc3=O)Oc3c(C)c(C)oc(=O)c32)ccc1OS(=O)(=O)c1ccc(C)cc1,13.2
15,O=S(=O)(Nc1nccs1)c1cnc(Cl)c(Br)c1,13.1
16,Cn1c(C(=O)N2CCC3(CC2)OCCO3)cc2c(=O)n(C)c3ccccc3c21,-0.0348
17,CCOC(=O)C1(CCc2ccccc2)CCN(C(=O)CCc2cnn(C)c2)CC1,-1.9
18,O=C(CN1CCc2cc3c(cc2C1)OCCCO3)Nc1ccccc1,3.59
19,COc1ccc(/C=C/C(=O)Nc2nc(N)n(-c3ccccc3)n2)cc1,-7.54
20,CCCC12CN(C(=O)c3ccco3)CC(CCC)(CN(C(=O)c3ccco3)C1)C2=O,7.91
21,O=C(Nc1ccc(CN2CCOCC2)cc1)c1ccc(-c2ccc(Br)cc2)o1,7.12
22,CN(Cc1ccco1)C(=O)CN1C(=O)NC2(CCCCC2)C1=O,17

row,SMILES,"hERG current change (%, negative = inhibition) at 1uM [%]"
1,COc1cccc(NC(=O)CN(C)C(=O)/C=C/c2cn(Cc3ccccc3)nc2-c2cccnc2)c1,-1.75
2,OC(Cc1cccnc1)(Cc1cccnc1)c1cc2ccccc2[nH]1,10.8
3,Cc1ccc(Nc2c(-c3ccc(N4CCOCC4)cc3)nc3ncccn23)cc1,15.1
4,Cc1cc(=O)oc2cc(NC(=O)C3COc4ccccc4O3)ccc12 (stereo not shown),22.3
5,Cn1cccc1/C=C1\SC(=O)N(c2ccc(O)cc2)C1=O,4.24
6,NC1=NC[C@H](Cc2ccc(O)cc2)N1CCc1cccc(F)c1,2.2
7,CCc1nc(SCC(=O)Nc2ccc(OC)cc2[N+](=O)[O-])n[nH]1,11.9
8,CC(C(=O)NC1CCCCC1)N(Cc1ccccc1)C(=O)c1snc(C(N)=O)c1N (stereo not shown),2.95
9,Clc1ccc(Cn2ncc3c(NCc4ccco4)ncnc32)c(Cl)c1,8.63
10,COC(=O)/C(=N/Nc1ccc(C)cc1)N1CCCc2ccccc21,6.54
11,COc1ccc(C2(C(=O)NCc3ccco3)CCCC2)cc1OC,3.87
12,O=C(CSCC(=O)N1CCN(c2ccccc2)CC1)Nc1nc(-c2ccc(Cl)s2)cs1,2.82
13,CCC(C)NC(=O)CCc1nnc2ccc(N3CCC(C)CC3)nn12 (stereo not shown),10.2
14,Cc1cc(NS(=O)(=O)c2c(C(=O)N3CCOCC3)c(C)n(C)c2C)ccc1Br,19.2
15,COc1ccc(Cc2nc(-c3ccccn3)no2)cc1OC,14.3
16,CC(C)C(=O)Nc1ccc(N2CCN(S(C)(=O)=O)CC2)cc1,6.35
17,COc1ccc(C)cc1-n1nnnc1SCc1cn2ccsc2n1,3.68
18,COC(=O)c1cc(S(=O)(=O)N2CCN(C(=O)c3ccco3)CC2)cn1C,25
19,N#Cc1cc(C#N)c(SCC(=O)N2CC(=O)Nc3ccccc32)nc1N,15.7
20,O=C(COc1ccccc1)NCC1(N2CCCCC2)CCCCC1,-3.96
21,CC(=O)c1ccc(OCc2cc(C(=O)N3CCCCC3c3cccnc3)no2)cc1 (stereo not shown),-0.85
22,O=c1c2c(nc3c(-c4ccc(Cl)cc4)c[nH]n13)CCC2,15.3

row,SMILES,"hERG current change (%, negative = inhibition) at 1uM [%]"
1,COCCNC(=O)CSc1nc(N)c(NC(=O)c2ccccc2F)c(=O)[nH]1,6.61
2,O=S(=O)(Nc1ccc2c(c1)OCO2)c1ccc(Br)s1,8.48
3,Cc1ccc(C(=O)N(CC(=O)NC2CCCC2)c2ccccc2C)s1,4.64
4,CCCN(CCC)C(=O)CC(c1ccccc1)C1CCOC(C)(C)C1 (stereo not shown),6.88
5,COc1ccc(CCNC(=O)CSc2ccc(-c3cccs3)nn2)cc1,8.41
6,Cc1ccc(C(=O)N2CCCC2)cc1S(=O)(=O)N1CCOCC1,6.52
7,Cc1nn(CC(O)CN2c3ccccc3Sc3ccccc32)c(C)c1Br (stereo not shown),9.45
8,CCCCCNc1nc(-c2ccccc2)nc(-n2ccnc2)n1,7.73
9,Cc1cccc(N(C(=O)c2snc(C(N)=O)c2N)C(C(=O)NCC2CCCO2)c2c[nH]c3ccccc23)c1 (stereo not shown),14.4
10,Cc1n[nH]c(=O)c2c(NC(=O)CSc3nc4ccccc4c(=O)n3CCCO)oc(C)c12,-3.91
11,Cn1cc(CCC(=O)N2CCC3(CC2)OCCO3)c2ccccc21,-4.35
12,CCOc1ccc(N2CC(C(=O)N3CCCC3)CC2=O)cc1 (stereo not shown),5.71
13,Cc1ccc(Cl)cc1NC(=O)CN1CCN(S(=O)(=O)N2CCC(C)CC2)CC1,-4.56
14,Cc1cccc(-c2nnc(SCC(=O)N3CCCC3)o2)c1,12.4
15,CN(C)C(=O)c1ccc2c3c(cccc13)CC2,19.3
16,COc1cc(C(=S)N2CCOCC2)ccc1OC(=O)c1cc([N+](=O)[O-])cc([N+](=O)[O-])c1,4.77
17,CCOC(=O)c1sc2nc(NC(=O)C3CC3)sc2c1C,2.72
18,COC(=O)c1c(-c2ccc(C)cc2)csc1N,1.71
19,COc1ccccc1CNc1ncc(-c2ccc(F)cc2)n1C.O=C(O)C(=O)O,-28.6
20,CCOC(=O)CC1C(=O)NCCN1S(=O)(=O)c1ccc(Cl)c(Cl)c1 (stereo not shown),5.21
21,O=C1NN(c2ccccc2)C(=O)/C1=C\c1ccccc1,8.73
22,Cc1noc(/C=C/NCc2cccnc2)c1S(=O)(=O)N(C)CC(=O)N1CCc2ccccc21,11.4
